Measurements: the supplement of paper PMC4604168 (melanoma cell lines)
The list shows a part of the results. Most values come without repeats; read them as rough.

How the values were obtained:
Test in all cases: cell count relative to DMSO control; melanoma cells; higher = more viable cells
Conditions in all cases: library dose: standard library concentration; 72 h
G361 = system: G361
IPC-298 = system: IPC-298
IST-MEL1 = system: IST-MEL1
LB2518-MEL = system: LB2518-MEL
LOXIMVI = system: LOXIMVI
MEL-HO = system: MEL-HO
MZ2-MEL = system: MZ2-MEL
MeWo = system: MeWo
RPMI7951 = system: RPMI7951
RVH-421 = system: RVH-421
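Further: cells treated in 1,536-well plates, then fixed and DAPI-stained, with nuclei counted from automated high-throughput microscope images.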

Row | SMILES | cell count (G361) | cell count (IPC-298) | cell count (IST-MEL1) | cell count (LB2518-MEL) | cell count (LOXIMVI) | cell count (MEL-HO) | cell count (MZ2-MEL) | cell count (MeWo) | cell count (RPMI7951) | cell count (RVH-421)
1 | O=C(/C=C/c1cccnc1)NCCCCC1CCN(C(=O)c2ccccc2)CC1 + COc1cc2ncnc(Nc3ccc(Oc4ccccc4)cc3)c2cc1OC [SrcI1] (first compound 0.05 µM, partner dose 10 µM) | 3.3% | 29.6% | 55.3% | 69.4% | 93.7% | 46.2% | 26.5% | 69.9% | 18.2% | 37.2%
2 | Cc1ccc(Nc2nccc(N(C)c3ccc4c(C)n(C)nc4c3)n2)cc1S(N)(=O)=O [Pazopanib] + COC(=O)c1sccc1S(=O)(=O)Nc1ccc(Nc2ccccc2)cc1OC [GSK0660] (first compound 2 µM, partner dose 5 µM) | 76.1% | 67.1% | 95.5% | 85.3% | 96% | 85.2% | 59.9% | 85.8% | 90.5% | 82.1%
3 | Cc1ccc(Nc2nccc(N(C)c3ccc4c(C)n(C)nc4c3)n2)cc1S(N)(=O)=O [Pazopanib] + CO[C@@H]1[C@H](N(C)C(=O)c2ccccc2)C[C@H]2O[C@]1(C)n1c3ccccc3c3c4c(c5c6ccccc6n2c5c31)C(=O)NC4 [Midostaurin] (first compound 2 µM, partner dose 0.4 µM) | 52.7% | 45.6% | 69.1% | 45.7% | 47.5% | 65.9% | 43.5% | 72.8% | 36.3% | 71.1%
4 | Cc1ccc(Nc2nccc(N(C)c3ccc4c(C)n(C)nc4c3)n2)cc1S(N)(=O)=O [Pazopanib] + CO[C@H]1C[C@@H]2CC[C@@H](C)[C@@](O)(O2)C(=O)C(=O)N2CCCC[C@H]2C(=O)O[C@H]([C@H](C)C[C@@H]2CC[C@@H](OCCO)[C@H](OC)C2)CC(=O)[C@H](C)/C=C(\C)[C@@H](O)[C@@H](OC)C(=O)[C@H](C)C[C@H](C)/C=C/C=C/C=C/1C [everolimus] (first compound 2 µM, partner dose 0.1 µM) | 68% | 45.2% | 78% | 53.1% | 82.5% | 61.3% | 56.6% | 62.4% | 64.9% | 85.8%
5 | Cc1ccc(Nc2nccc(N(C)c3ccc4c(C)n(C)nc4c3)n2)cc1S(N)(=O)=O [Pazopanib] + Nc1ccn([C@@H]2O[C@H](CO)[C@@H](O)C2(F)F)c(=O)n1 [gemcitabine] (first compound 2 µM, partner dose 0.002 µM) | 60% | 48.7% | 56.8% | 68.7% | 65.4% | 61.3% | 71.2% | 50% | 53.5% | 65.7%
6 | O=C(/C=C/c1cccnc1)NCCCCC1CCN(C(=O)c2ccccc2)CC1 + CS(=O)(=O)CCNCc1ccc(-c2ccc3ncnc(Nc4ccc(OCc5cccc(F)c5)c(Cl)c4)c3c2)o1 [lapatinib] (first compound 0.05 µM, partner dose 4 µM) | 3.9% | 21.9% | 66.8% | 46.7% | 81.2% | 38% | 11.3% | 66.6% | 43.4% | 40%
7 | CC1(C)CCC(c2ccc(Cl)cc2)=C(CN2CCN(c3ccc(C(=O)NS(=O)(=O)c4ccc(N[C@H](CCN5CCOCC5)CSc5ccccc5)c(S(=O)(=O)C(F)(F)F)c4)cc3)CC2)C1 + C[C@@H](N)c1ccc(C(=O)Nc2ccnc3[nH]ccc23)cc1 [RKI983] (first compound 2 µM, partner dose 2 µM) | 42% | 87% | 73.2% | 72.9% | 70.6% | 30.9% | 44.7% | 51.6% | 11.4% | 38.5%
8 | Cc1ccc(Nc2nccc(N(C)c3ccc4c(C)n(C)nc4c3)n2)cc1S(N)(=O)=O [Pazopanib] + N#Cc1c(O)c2c(-c3ccc(-c4ccccc4O)cc3)csc2[nH]c1=O [A769662] (first compound 2 µM, partner dose 10 µM) | 85.8% | 63.6% | 84.7% | 85% | 96.1% | 80.6% | 66.2% | 99.6% | 108% | 117%
9 | Cc1ccc(Nc2nccc(N(C)c3ccc4c(C)n(C)nc4c3)n2)cc1S(N)(=O)=O [Pazopanib] + C[C@@H](N)c1ccc(C(=O)Nc2ccnc3[nH]ccc23)cc1 [RKI983] (first compound 2 µM, partner dose 2 µM) | 87% | 68.1% | 77.5% | 101% | 65.4% | 62.3% | 41.6% | 76.6% | 53.5% | 58%
10 | Cc1ccc(Nc2nccc(N(C)c3ccc4c(C)n(C)nc4c3)n2)cc1S(N)(=O)=O [Pazopanib] + CN(c1ncccc1CNc1nc(Nc2ccc3c(c2)CC(=O)N3)ncc1C(F)(F)F)S(C)(=O)=O [PF562271] (first compound 2 µM, partner dose 0.4 µM) | 71.7% | 73.6% | 92.4% | 61.7% | 103% | 88.2% | 65.7% | 80.1% | 33.9% | 80.3%
11 | CC1(C)CCC(c2ccc(Cl)cc2)=C(CN2CCN(c3ccc(C(=O)NS(=O)(=O)c4ccc(N[C@H](CCN5CCOCC5)CSc5ccccc5)c(S(=O)(=O)C(F)(F)F)c4)cc3)CC2)C1 + CCCS(=O)(=O)Nc1ccc(F)c(C(=O)c2c[nH]c3ncc(Cl)cc23)c1F [PLX4720] (first compound 2 µM, partner dose 0.4 µM) | 44.1% | 71.2% | 86.5% | 89.7% | 49.9% | 51.3% | 80.1% | 75.9% | 38.9% | 23.5%
12 | CC1(C)CCC(c2ccc(Cl)cc2)=C(CN2CCN(c3ccc(C(=O)NS(=O)(=O)c4ccc(N[C@H](CCN5CCOCC5)CSc5ccccc5)c(S(=O)(=O)C(F)(F)F)c4)cc3)CC2)C1 + O=C(CCCCCCC(=O)Nc1ccccc1)NO [vorinostat] (first compound 2 µM, partner dose 0.4 µM) | 77.4% | 96.3% | 75.7% | 79.9% | 21.8% | 58.7% | 115% | 82.6% | 21.7% | 67.6%
13 | Cc1ccc(Nc2nccc(N(C)c3ccc4c(C)n(C)nc4c3)n2)cc1S(N)(=O)=O [Pazopanib] + CC(C)(C)c1cnc(CSc2cnc(NC(=O)C3CCNCC3)s2)o1 [SNS-032] (first compound 2 µM, partner dose 0.05 µM) | 89.3% | 94.1% | 111% | 55.2% | 65% | 97.2% | 82.3% | 86.3% | 32.7% | 95%
14 | CC1(C)CCC(c2ccc(Cl)cc2)=C(CN2CCN(c3ccc(C(=O)NS(=O)(=O)c4ccc(N[C@H](CCN5CCOCC5)CSc5ccccc5)c(S(=O)(=O)C(F)(F)F)c4)cc3)CC2)C1 + COC(=O)c1sccc1S(=O)(=O)Nc1ccc(Nc2ccccc2)cc1OC [GSK0660] (first compound 2 µM, partner dose 5 µM) | 90% | 90.6% | 84.9% | 98.2% | 64.4% | 63% | 87.8% | 111% | 60.6% | 69.1%
15 | CC1(C)CCC(c2ccc(Cl)cc2)=C(CN2CCN(c3ccc(C(=O)NS(=O)(=O)c4ccc(N[C@H](CCN5CCOCC5)CSc5ccccc5)c(S(=O)(=O)C(F)(F)F)c4)cc3)CC2)C1 + CCN(CC)CCCCNc1ncc2cc(-c3cc(OC)cc(OC)c3)c(NC(=O)NC(C)(C)C)nc2n1 [PD173074] (first compound 2 µM, partner dose 0.5 µM) | 76% | 84% | 77.9% | 77.9% | 35.4% | 63.1% | 96.6% | 73.6% | 49.5% | 75.6%
16 | Cc1ccc(Nc2nccc(N(C)c3ccc4c(C)n(C)nc4c3)n2)cc1S(N)(=O)=O [Pazopanib] + C[C@]1(O)C[C@@H](c2nc(-c3ccc4ccc(-c5ccccc5)nc4c3)c3c(N)nccn32)C1 [OSI906] (first compound 2 µM, partner dose 2 µM) | 71.1% | 63.1% | 89% | 72.1% | 93.2% | 94.5% | 56.8% | 73.5% | 57.6% | 71.1%
17 | Cc1ccc(Nc2nccc(N(C)c3ccc4c(C)n(C)nc4c3)n2)cc1S(N)(=O)=O [Pazopanib] + c1cc(-c2cnn3cc(-c4ccc(OCCN5CCCCC5)cc4)cnc23)ccn1 [Dorsomorphin] (first compound 2 µM, partner dose 2 µM) | 47.1% | 55.8% | 98% | 56.9% | 172% | 77.9% | 65.5% | 78.6% | 77.7% | 79.4%
18 | Cc1ccc(Nc2nccc(N(C)c3ccc4c(C)n(C)nc4c3)n2)cc1S(N)(=O)=O [Pazopanib] + Nc1cccc2c1CN(C1CCC(=O)NC1=O)C2=O [lenalidomide] (first compound 2 µM, partner dose 5 µM) | 97.1% | 68.7% | 92.7% | 85.6% | 112% | 88.4% | 71.2% | 107% | 79.2% | 66.9%
19 | Cc1ccc(Nc2nccc(N(C)c3ccc4c(C)n(C)nc4c3)n2)cc1S(N)(=O)=O [Pazopanib] + Nc1nc(F)nc2c1ncn2[C@@H]1O[C@H](CO)[C@@H](O)[C@@H]1O [fludarabine] (first compound 2 µM, partner dose 1 µM) | 77.1% | 54.6% | 60.4% | 85.9% | 85% | 68.5% | 60.6% | 91.9% | 63.9% | 73.1%
20 | Cc1ccc(Nc2nccc(N(C)c3ccc4c(C)n(C)nc4c3)n2)cc1S(N)(=O)=O [Pazopanib] + Cn1cnc2c(F)c(Nc3ccc(Br)cc3Cl)c(C(=O)NOCCO)cc21 [selumetinib] (first compound 2 µM, partner dose 0.075 µM) | 60.4% | 69.6% | 87.2% | 56.2% | 132% | 98.1% | 75.7% | 79.4% | 69.6% | 95.7%
21 | CC1(C)CCC(c2ccc(Cl)cc2)=C(CN2CCN(c3ccc(C(=O)NS(=O)(=O)c4ccc(N[C@H](CCN5CCOCC5)CSc5ccccc5)c(S(=O)(=O)C(F)(F)F)c4)cc3)CC2)C1 + COc1ccc(COc2ccc(Cc3cnc(N)nc3N)cc2OC)cc1 [GW2580] (first compound 2 µM, partner dose 5 µM) | 69.2% | 90.8% | 85.1% | 89.7% | 103% | 69.9% | 104% | 90.6% | 32.7% | 57.2%
